From PubChem BioAssay AID686978 (National Center for Advancing Translational Sciences (NCATS), 2013)
Out of some 420,000 compounds screened, about 64,000 (15%) were called active. Inconclusive means that the source gave no clear call. Such entries were picked first, then a sample of the others. Calls come from the whole dose curve; as a rule, active = well fitted inhibition curve with a large enough effect; inconclusive = small, poorly fitted or top-dose-only effect; inactive = flat fitted curve, though single readings scatter. Potencies of inconclusive entries are left out as doubtful fits.

assay: qHTS for Inhibitors of human tyrosyl-DNA phosphodiesterase 1 (TDP1): qHTS in cells in absence of CPT; conditions: DT40 Tdp1-/- hTDP1 cells, no CPT, ATP luminescence, 48 h; activity change, negative = growth inhibition: at 46.2 µM (top of the series); note: nearly all actives have a fitted effect of over 55% in size
Outline: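 Growth of hTDP1-complemented DT40 Tdp1-knockout cells is measured by ATP luminescence after at least 48 hr compound exposure at 37 °C, with DMSO substituting for the 20 nM CPT used in the parallel screen.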
% is set by controls: 0 for no effect and ±100 for the full control effect; potency is the fitted concentration of half-maximal effect; tags give direction and shape of the fitted curve.

SMILES	Potency	activity change, negative = growth inhibition
O=C(Nc1cc(S(=O)(=O)N2CCOCC2)ccc1N1CCCCC1)c1ccccc1Br	inconclusive [inhibitor, single point]	–
Nc1cc(C(=O)OCC(=O)NCCNC(=O)COC(=O)c2ccc(Cl)c(N)c2)ccc1Cl	inconclusive [inhibitor, single point]	–
Cc1nnc(SCc2cc(=O)[nH]c(=S)[nH]2)s1	inactive	–
COc1cc(/C=C(\C#N)C(=O)Nc2cccc3ncccc23)cc(OC)c1OC	inconclusive [inhibitor, partial curve]	–
CC1(C)CC(=O)C=C(Nc2cccc(O)c2)C1	inactive	–
Cc1ccc(Cl)cc1NC(=O)Cn1cc2c(n1)CCCCC2	inactive	–
Cc1cc(OCC(=O)Nc2cc(-c3nn4c(C)nnc4s3)ccc2C)ccc1Cl	inconclusive [inhibitor, partial curve]	–
CCSc1ncc(Cl)c(C(=O)Nc2ccc(S(=O)(=O)Nc3nccc(C)n3)cc2)n1	inconclusive [inhibitor, partial curve]	–
O=C(C1CCC(CNS(=O)(=O)c2ccccc2)CC1)N1CCCCC1 (centres undefined)	inactive	–
Cc1ccc(-c2nnc(NCc3nc4ccccc4[nH]3)c3ccccc23)cc1S(=O)(=O)N1CCOCC1	active: 10.3 µM	–
Cc1ccc(C(=O)OCC(=O)NCc2ccc(Cl)cc2)s1	inconclusive [inhibitor, single point]	–
CCOC(=O)NC(=S)Nc1cccc(C)n1	inactive	–
CC(OC(=O)CN1C(=O)COc2ccccc21)C(=O)NCc1ccc(F)cc1 (centres undefined)	inactive	–
CCCc1nnc(NC(=O)CCS(=O)(=O)c2ccccc2)s1	active: 5.17 µM	–
Cc1ccc(Sc2ncnc(N)c2[N+](=O)[O-])cc1	inconclusive [inhibitor, single point]	–
O=C1CC2(CCN(C(=O)c3ccc(Cl)cc3)CC2)Oc2ccccc21	inconclusive [inhibitor, partial curve]	–
CC(C)C[C@H](NC(=O)c1nc[nH]c1C(=O)NCCCCCNC(=O)OC(C)(C)C)C(=O)OCc1ccccc1	inconclusive [inhibitor, single point]	–
COc1ccc(CN(Cc2ccco2)c2cnc(S(C)(=O)=O)nc2C(=O)Nc2ccc(C)c(C)c2)cc1	inconclusive [inhibitor, partial curve]	–
Cc1ccc(NC(=S)NCCc2ccccc2)c(C)c1	inconclusive [inhibitor, single point]	–
COc1ccc(N2CCC(CNC(=S)Nc3cccc(C)c3)C2)cc1 (centres undefined)	inconclusive [inhibitor, partial curve, poor fit]	–

SMILES	Potency	activity change, negative = growth inhibition
Cc1cccc(CSc2nc3cccnc3n2Cc2ccc(C(=O)NCc3ccco3)cc2)c1	inconclusive [inhibitor, single point]	–
CCOC(=O)c1cccc(NC(=O)C2CCN(c3ncnc4c3nc3n4CCCCC3)CC2)c1	inconclusive [inhibitor, full curve, poor fit]	–
CC(C)NC(=O)c1cnc(Sc2ncc(C(F)(F)F)cc2Cl)n1C	–	inconclusive: -30% [inhibitor]
O=C(CO/N=C/c1ccccc1)N1c2ccccc2Oc2ccccc21	inconclusive [inhibitor, single point]	–
COc1ccc(/C=N/NC(=O)c2cc(C34CC5CC(CC(C5)C3)C4)[nH]n2)cc1OC	inconclusive [inhibitor, single point]	–
CCOc1cc(/C=N/Nc2cccc(C(=O)O)c2)ccc1OC(=O)c1ccccc1	inconclusive [inhibitor, single point]	–
CC(NC(=O)COC(=O)c1ccc([N+](=O)[O-])s1)c1ccccc1 (centres undefined)	inactive	–
COc1ccc(CNC(=O)COC(=O)C2CC2C)cc1OC (centres undefined)	inconclusive [inhibitor, partial curve]	–
O=C(NCC(=O)N(c1ccc(F)cc1)C(C(=O)NC1CCCC1)c1cccnc1)c1cccs1 (centres undefined)	inactive	–
Cc1ccc(C)c(OCC(=O)Nc2ccccc2C(=O)N2CCOCC2)c1	inconclusive [inhibitor, partial curve, poor fit]	–
Cc1ccc(NC(=O)COC(=O)c2ccccc2-c2nc3ccccc3s2)c(C)c1	inconclusive [inhibitor, single point]	–
C=CCNC(=O)c1sc(=S)n(-c2ccc(C(=O)OCC)cc2)c1N	inconclusive [inhibitor, single point]	–
CC(C)C[C@@H](CO)N1CCN(C)CCC1=O	inactive	–
CCN1C(=O)c2ccccc2S(=O)(=O)c2ccc(C(=O)NCCCN(CC(C)C)CC(C)C)cc21	inactive	–
O=C(COC(=O)/C(=C/c1cccs1)c1cccs1)NCc1ccccc1Cl	inconclusive [inhibitor, single point]	–
Cc1c(Cl)cccc1NC(=O)CCNC(=O)N1CC(=O)Nc2ccccc21	inactive	–
CN(C)c1ccc(/C=C/c2ncnc3ccccc23)cc1	active: 15.8 µM	–
OC(CNCc1ccc2c(c1)OCO2)COc1ccc(F)cc1 (centres undefined)	inconclusive [inhibitor, single point]	–
O=C(CCc1nc2ccccc2c(=O)[nH]1)OCc1ccccc1F	–	inconclusive: -30.7% [inhibitor]
CCc1ccc(CNC(=O)C2CCCN(S(=O)(=O)N3CC(C)CC(C)C3)C2)cc1 (centres undefined)	inconclusive [inhibitor, single point]	–

SMILES	Potency	activity change, negative = growth inhibition
Cc1ccc(C)c(NC(=O)CSc2ncc3c(n2)-c2cc(Cl)ccc2N(Cc2ccccc2F)S3(=O)=O)c1	inconclusive [inhibitor, partial curve]	–
CCCSCCCNC(=O)c1cc2n(n1)CCCN(Cc1ccc(C)cc1)C2=O	inconclusive [inhibitor, single point]	–
COc1cc2c(NC3CCN(C)CC3)nc(N3CCCN(C)CC3)nc2cc1OCCCN1CCCC1	inconclusive [inhibitor, single point]	–
COc1ccccc1C1CC(c2ccco2)=NN1S(C)(=O)=O (centres undefined)	inconclusive [inhibitor, partial curve, poor fit]	–
CCOc1ccc(CCNC(=O)CCN2N=C(c3ccc(OC)cc3)CCC2=O)cc1OCC	inconclusive [inhibitor, single point]	–
Cc1cc(NC(=O)c2ccco2)ccc1-n1cnnn1	–	inconclusive: -27% [inhibitor]
COc1ccc(N2CCN(C(=O)c3cc(NS(=O)(=O)c4ccc(F)cc4)ccn3)CC2)cc1	inactive	–
CCCC(O)(CCN1CCOCC1)c1ccc(Br)cc1 (centres undefined)	inconclusive [inhibitor, partial curve]	–
CC(C)C(NC(=O)C12CC3CC(CC(C3)C1)C2)C(=O)N/N=C/C1=C(N2CCOCC2)C(=C\c2ccc([N+](=O)[O-])cc2)/CC1 (centres undefined)	inactive	–
CCCCCC(=O)NNC1=NCC(Cc2cccc(Cl)c2)S1 (centres undefined)	inconclusive [inhibitor, single point]	–
COc1cc2c(C(=O)c3ccccc3)c3c4c(cc(OC)c(OC)c4c2cc1OC)CCN3C	inconclusive [inhibitor, full curve, poor fit]	–
C/C(=N/OCc1ccc(Br)cc1)c1ccccn1	inconclusive [inhibitor, single point]	–
Cc1cc2c(ccc3[nH]onc32)n1	inconclusive [inhibitor, partial curve]	–
Cn1nc(-c2ccccc2)c(C(O)c2ccc(Cl)cc2)c1Cl (centres undefined)	inconclusive [inhibitor, partial curve]	–
COC(=O)C1CCN(C(=O)COC(=O)c2cc(-c3ccccc3)nc3ccc(OC)cc23)CC1	inconclusive [inhibitor, single point]	–
COc1ccc(Cn2ccc3nc(C)c(C(=O)NCc4ccc(C)cc4)cc3c2=O)cc1	inconclusive [inhibitor, partial curve]	–
COc1cccc(C2(c3cccc(OC)c3)CC2C(=O)Nc2cccc3ccccc23)c1 (centres undefined)	active: 25.9 µM	–
CC1(C)CC(=O)c2cc(-c3nc(-c4ccc(Cl)cc4)cs3)c(=O)n(-c3ccc(F)cc3)c2C1	inconclusive [inhibitor, partial curve, poor fit]	–
Cc1ccc(S(=O)(=O)N2CCN(C(=O)COC(=O)c3c(C)cc(C)cc3C)CC2)c(C)c1	active: 10.3 µM	–
